This note sets out measurements from PubChem BioAssay AID1963576 (National Center for Advancing Translational Sciences (NCATS), 2024).

Out of some 46,000 compounds screened, about 60 (0.1%) were called active. Another 3% or so got no clear call; they are omitted. Calls follow the shape of the dose curve; as a rule, active = well fitted inhibition curve with a large enough effect; inconclusive = small, poorly fitted or top-dose-only effect; inactive = no such curve, though single readings can be large or run the other way. The list shows a part of the results.

This assay in a line: Primary qHTS assay for Inhibitors of ovarian cancer metastasis using an organotypic tumor microenvironment (TME) model. Also: nearly all actives have a fitted effect of over 65% in size.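 As to activity change, negative = inhibition: plate controls were DMSO wells for no effect and tomatine positive control wells for full effect.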 Conditions: SKOV3ip1-GFP adhesion/invasion on 3D omental model, fluorescence; series mostly up to 45.8 µM; activity change, negative = inhibition: at the top concentration. The method in brief: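 Primary human omental fibroblast/mesothelial 3D culture pre-formed 48 h. SKOV3ip1-GFP cells added with compounds (0.36-46 umol/L), incubated 2 h RT/16 h 37 C, fixed; GFP cells quantified at 488/509 nm.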
A general note: qHTS replaces the single test concentration by a dilution series.
Consider `CCOc1ccc(CCNC(=O)c2ccc(CS(=O)(=O)Cc3ccccc3Cl)o2)cc1OCC`, for which the “activity change, negative = inhibition” value was inactive: -6.5%.

Regarding `CNC1[C@H](O)C(O[C@@H]2C(O)C(O[C@H]3O[C@H]([C@@H](C)NC)CC[C@H]3N)[C@@H](N)C[C@H]2N)OC[C@]1(C)O` (stereo not given in full), the “activity change, negative = inhibition” value was inactive: 6.39%.

Regarding `CCOc1ccc(-c2ccc(NS(=O)(=O)c3cc(C)c(C)cc3C)cc2)nn1`, the “activity change, negative = inhibition” value was inactive: 7.86%.

Turning to `O=C(c1cc2c(=O)[nH]c3ccccc3c2s1)N1CCN(c2ccc(F)cc2)CC1`, the “activity change, negative = inhibition” value is inactive: 3.66%.

In the case of `CC(NC(=O)CCn1c(=O)c2cccn2c2ccc(F)cc21)c1ccccc1` (stereo not given), the “activity change, negative = inhibition” value was inactive: -1.85%.

Turning to `CCOc1ccc(C(=O)Nc2ccc(-c3nc4cc(CC)ccc4o3)cc2)cc1`, the “activity change, negative = inhibition” value is inactive: 1.38%.

Turning to `CCCOc1ccc(Nc2nc(SC)ncc2C(=O)OCC)cc1`, the “activity change, negative = inhibition” value is inactive: -13.8%.

`COC(=O)c1ccc(NC(=O)Nc2nnc(N(C)C3CCCCC3)s2)cc1`: the “activity change, negative = inhibition” value was inactive: -3.62%.

With `O=C(CCn1c(=O)c2cccn2c2ccc(F)cc21)NCCc1ccccc1Cl`, the “activity change, negative = inhibition” value was inactive: 4.24%.

Take `COc1cccc2c1Oc1nc(-c3ccccc3)nc(SCC(=O)N3CCCCC3)c1C2`: the “activity change, negative = inhibition” value is inactive: 2.89%.

For the molecule `COc1ccc(CN2COc3ccc4c(C)cc(=O)oc4c3C2)cc1`, the “activity change, negative = inhibition” value was inactive: -9.46%.

For `COc1cccc(NC(=O)c2oc3ccccc3c2NC(=O)C23CC4CC(CC(C4)C2)C3)c1`, the “activity change, negative = inhibition” value was inactive: 15.1%.

Regarding `COc1ccc(NC(=O)C(=O)NCCc2csc(-c3ccc(Cl)cc3)n2)cc1`, the molecule was called inactive.

For `COc1ccccc1NC(=O)Cn1c(=O)n(Cc2ccccc2)c(=O)c2ccccc21`, the “activity change, negative = inhibition” value was inactive: 3.22%.

Consider `COc1ccc(-c2nc3nc(C)cc(Nc4ccc(C(C)=O)cc4)n3n2)cc1`, for which the “activity change, negative = inhibition” value is inactive: 48.4%.

With `COC(=O)c1ccc(NC(=O)Cc2coc3cc(C)ccc23)cc1`, the “activity change, negative = inhibition” value is inactive: 1.83%.

`Cc1cc(C)cc(-n2c(SCC(=O)Nc3nnc(C)s3)nc3c([nH]c4ccccc43)c2=O)c1`: the “activity change, negative = inhibition” value is inactive: 14%.

`Cc1coc2c(C)c3oc(=O)c(CC(=O)N4CCCCC4)c(C)c3cc12`: the “activity change, negative = inhibition” value is inactive: -2.92%.

As for `NC(=O)c1cccc(-c2cc(Nc3ccc(OC(F)(F)F)cc3)ncn2)c1`, the “activity change, negative = inhibition” value is inactive: -11.3%.

`Cc1nc2nc(NC(=O)c3cccc(Cl)c3)[nH]n2c(=O)c1Cc1ccccc1`: the “activity change, negative = inhibition” value was inactive: -0.731%.

Consider `CCn1nnc2cc(C(=O)Nc3cccc(Cl)c3)ccc21`, for which the outcome was inactive.

With `CCC(C(=O)N1CCN(c2cccc(C)c2C)CC1)n1nc(C)c2sc3ccccc3c2c1=O` (stereo not given), the “activity change, negative = inhibition” value is inactive: 2.28%.

On to `CCCNC(=O)C1CCC(Cn2c(=O)c3sccc3n(Cc3cccc(OC)c3)c2=O)CC1` (stereo not given), for which the “activity change, negative = inhibition” value is inactive: -12.2%.

As for `COc1ccc(-n2nc(C(=O)N(C)c3cccc(C(F)(F)F)c3)c3c4ccccc4n(C)c3c2=O)cc1`, the “activity change, negative = inhibition” value is inactive: -7.96%.

As to `COc1cccc(CNC(=O)CCn2c(=O)c3cccn3c3ccc(F)cc32)c1OC`, the “activity change, negative = inhibition” value is inactive: 2.84%.

On to `Cc1ccc(CCNC(=O)c2nn(C)c3c2CSc2ccccc2-3)cc1`, for which the molecule was classed as inactive.

As for `CCCCOc1ccc(CNC(=O)CN2CCSc3ccccc32)cc1`, the “activity change, negative = inhibition” value is inactive: 7.13%.

In the case of `O=S(=O)(c1ccc(Br)cc1)c1nc(-c2ccco2)oc1SCc1ccccc1Cl`, the “activity change, negative = inhibition” value is inactive: -4.12%.

Regarding `COc1ccc(CCNC(=O)Cn2cc(C(=O)c3ccccc3)c(=O)c3ccc(C)nc32)cc1OC`, the “activity change, negative = inhibition” value was inactive: -2.84%.

For `CCOC(=O)c1c(S(=O)(=O)N2CCC(C(=O)Nc3ccccc3OC)CC2)c(C)n(CC)c1C`, the “activity change, negative = inhibition” value is inactive: 0.146%.

Turning to `COc1ccc(CCNC(=O)CCc2c(C)nc3c(c(C)nn3-c3ccc(C)c(C)c3)c2C)c(OC)c1OC`, the “activity change, negative = inhibition” value was inactive: -2.24%.

Regarding `Cc1ccc(NC(=O)CCn2c(=O)c3cccn3c3ccccc32)c(Cl)c1`, the molecule was classed as inactive.

For `CCOC(=O)C1CCC(CN(Cc2ccccc2)S(=O)(=O)c2ccc(Cl)cc2)CC1` (stereo not given), the “activity change, negative = inhibition” value is inactive: -8.03%.

On to `CCOc1ccc(-n2c(-c3ccc(C)cc3)nc3c(cnn3-c3ccccc3)c2=O)cc1`, for which the “activity change, negative = inhibition” value is inactive: 4.92%.

`Cc1c(Cl)cccc1NS(=O)(=O)c1ccc2[nH]cc(C(=O)NC3CCCC3)c(=O)c2c1`: the “activity change, negative = inhibition” value is inactive: 7.56%.

On to `CCCCN(CCCC)CCNC(=O)c1cn(C)c2ccc(S(=O)(=O)N3CCOCC3)cc2c1=O`, for which the result was inactive.

Consider `CCn1cc(C(=O)NCCc2ccc(C)cc2)c(=O)c2cc(S(=O)(=O)N(C)C)ccc21`, for which the molecule was classed as inactive.

For the molecule `CN1C(=O)CC(=O)N(C)c2cc(S(=O)(=O)N(C)Cc3ccccc3)ccc21`, the “activity change, negative = inhibition” value was inactive: 4.29%.

Regarding `Cc1ccccc1C(=O)Nc1ccccc1C(=O)OCc1cc(=O)n2ccsc2n1`, the “activity change, negative = inhibition” value is inactive: 1.73%.

For the molecule `Cc1cc(C)c(Cn2c3ccccc3c3cnn(CC(=O)N4CCCCC4)c(=O)c32)c(C)c1`, the “activity change, negative = inhibition” value was inactive: 0.697%.

As for `COc1cccc(N2CC(NC(=O)Cc3cccs3)CC2=O)c1` (stereo not given), the “activity change, negative = inhibition” value was inactive: -1.43%.

Turning to `Cc1ccc2c(c1)c1c(c(=O)n(-c3ccccc3)c(=O)n1CC(=O)N1CCCC1)n2C`, the “activity change, negative = inhibition” value was inactive: -2.49%.

On to `CCOc1ccc(OCC)c(Nc2nc3ccccc3c3nnc(C)n23)c1`, for which the molecule was classed as inactive.

Take `Cc1ccc(-n2ncc(C(=O)NCCN3CCN(C)CC3)c2C2CCN(C(=O)OC(C)(C)C)CC2)c(C)c1`: the “activity change, negative = inhibition” value is inactive: -20%.

For `CC(=O)c1cccc(NS(=O)(=O)c2ccc3[nH]c4c(c3c2)CCCCCC4)c1`, the “activity change, negative = inhibition” value was inactive: 3.33%.
